The campaign covered roughly 16,000 compounds. About 120 (0.75%) were called active. Inconclusive results (about 4%) are left out. Calls come from the whole dose curve; as a rule, active = well fitted inhibition curve with a large enough effect; inconclusive = small, poorly fitted or top-dose-only effect; inactive = no such curve, though single readings can be large or run the other way. The list shows a part of the results. Where a SMILES comes first, the peptide text is derived from it. Bridges are numbered along the chain shown (N, C = ends). [ ]: non-standard residue; d: D form. The star is where a group is joined. X2 = CC[C@@H](C)[C@@H](N)C1=N[C@H](C(=O)*)CS1; d(aIle) = CC[C@H](C)[C@@H](N)C(=O)O; dOrn = NCCC[C@@H](N)C(=O)O
Each compound was assayed against Rap guanine nucleotide exchange factor 3 (Homo sapiens) (UniProt O95398) (assay: Validation qHTS for antagonist of cAMP-regulated guanine nucleotide exchange factor 3 (EPAC1)). Conditions: EPAC1 Rap1B-BODIPY-GDP exchange, fluorescence; series mostly up to 150 µM; activity change, negative = inhibition: at the top concentration.
Chain of UniProt O95398 (O95398 whole entry, looked up): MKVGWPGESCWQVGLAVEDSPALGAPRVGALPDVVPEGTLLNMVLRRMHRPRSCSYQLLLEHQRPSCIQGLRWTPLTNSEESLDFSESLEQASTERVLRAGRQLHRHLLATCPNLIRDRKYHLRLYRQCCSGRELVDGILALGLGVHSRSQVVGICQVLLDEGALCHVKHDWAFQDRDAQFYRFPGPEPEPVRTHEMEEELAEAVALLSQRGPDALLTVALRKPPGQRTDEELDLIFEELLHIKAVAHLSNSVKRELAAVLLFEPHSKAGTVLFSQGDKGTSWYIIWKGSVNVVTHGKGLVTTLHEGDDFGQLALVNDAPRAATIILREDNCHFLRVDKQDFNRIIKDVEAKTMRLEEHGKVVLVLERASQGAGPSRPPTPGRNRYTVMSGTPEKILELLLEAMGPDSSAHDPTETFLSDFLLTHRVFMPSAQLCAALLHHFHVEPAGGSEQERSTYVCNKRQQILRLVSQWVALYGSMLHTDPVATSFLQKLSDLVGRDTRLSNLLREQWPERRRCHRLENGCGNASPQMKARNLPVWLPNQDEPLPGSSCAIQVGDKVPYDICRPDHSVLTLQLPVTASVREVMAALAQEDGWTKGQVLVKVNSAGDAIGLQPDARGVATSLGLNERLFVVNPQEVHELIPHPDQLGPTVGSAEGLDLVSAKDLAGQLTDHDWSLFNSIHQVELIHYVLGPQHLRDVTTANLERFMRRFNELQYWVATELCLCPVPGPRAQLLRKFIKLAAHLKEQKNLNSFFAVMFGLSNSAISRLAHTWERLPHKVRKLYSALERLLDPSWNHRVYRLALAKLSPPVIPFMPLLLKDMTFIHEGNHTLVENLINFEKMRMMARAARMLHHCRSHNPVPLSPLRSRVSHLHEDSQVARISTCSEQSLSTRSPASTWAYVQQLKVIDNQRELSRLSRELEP
Method in brief: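 EPAC1 (100 nM) mixed with 250 nM RAP1B-BODIPY-GDP and 50 uM GDP; compounds in concentration series, 5 min at room temperature. Fluorescence (ex 480/em 540 nm) read every 5 min for 30 min; normalized to ATA control and DMSO.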
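Note: plate controls were DMSO for no effect and ATA control for full effect; nearly all actives have a fitted effect of over 75% in size.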

Activity change, negative = inhibition, inactive:
C[C@]12C=CC(=O)C=C1[C@@H](F)C[C@@H]1[C@@H]2[C@@H](O)C[C@@]2(C)[C@H]1CC[C@]2(O)C(=O)CO
CC1CC2C3CCC4=CC(=O)C=C[C@@]4(C)[C@]3(F)C(O)C[C@]2(C)[C@]1(O)C(=O)CO (stereo partly specified)
COCC(=O)N1CCC[C@@]2(CCN(Cc3cc(C(F)(F)F)cc(C(F)(F)F)c3)C2)C1 -2.2%
Cc1c(N)nc([C@H](CC(N)=O)NC[C@H](N)C(N)=O)nc1C(=O)N[C@H](C(=O)N[C@H](C)[C@@H](O)[C@H](C)C(=O)N[C@H](C(=O)NCCc1nc(-c2nc(C(=O)NCCCCN=C(N)N)cs2)cs1)[C@@H](C)O)[C@@H](O[C@@H]1O[C@@H](CO)[C@@H](O)[C@H](O)[C@@H]1O[C@H]1O[C@H](CO)[C@@H](O)[C@H](OC(N)=O)[C@@H]1O)c1cnc[nH]1
COc1ccc(C(=O)c2ccc(C)cc2)c(O)c1 -4.44%
CC[C@@H](C)[C@@H](N)C1=N[C@H](C(=O)N[C@@H](CC(C)C)C(=O)N[C@@H](CCC(=O)O)C(=O)N[C@@H](C(=O)N[C@@H]2CCCCNC(=O)[C@@H](CC(N)=O)NC(=O)[C@@H](CC(=O)O)NC(=O)[C@@H](Cc3cnc[nH]3)NC(=O)[C@@H](Cc3ccccc3)NC(=O)[C@@H]([C@H](C)CC)NC(=O)[C@@H](CCCN)NC2=O)[C@@H](C)CC)CS1 (X2-LE[d(aIle)][dK][dOrn][dI][dF][dH][dD][dN]; lactam 4-C)
COc1cccc(CN2C(=O)NC(C)(C3CCN(Cc4cc(F)cc(F)c4)CC3)C2=O)c1OC (stereo unspecified) -9.51%
NC(=O)NC(=O)Cc1ccccc1 22.4%
Cc1c(C(=O)NCC2COCCO2)cnn1-c1nccc(-c2cccs2)n1 (stereo unspecified) 15.2%
COCC1CCCN(Cc2ccc3c(c2)CN(C(=O)c2ccc(-c4ccc(C)o4)cc2)CCO3)C1 (stereo unspecified) 6.91%
CCCCN1C[C@H](Cc2ccccc2)[C@@H](CC(=O)Nc2ccccc2)C1=O -11.2%
CN1CCCC2(CCN(S(=O)(=O)c3ccccc3)CC2)C1 21.5%
CCCCN1CC[C@H]2C=CC[C@@H](C(=O)Nc3ccc(OC)cc3)[C@H]2C1=O 8.28%
COCC(=O)N1CCC2(CCCN(c3ccncc3)C2)CC1 5.12%
N#Cc1cc2[nH]c(=O)c(=O)[nH]c2cc1[N+](=O)[O-] 3.13%
CO[C@H]1[C@H](NC(=O)c2cccs2)c2ccccc2C12CCN(Cc1cccn1-c1cccnc1)CC2 10.1%
O=C(c1cccnc1)C1CCCN(Cc2ccc3c(c2)CN(C(=O)c2cccc(Cl)c2)CCO3)C1 (stereo unspecified) 15.7%
CC1CS(=O)(=O)CCN1/N=C/c1ccc([N+](=O)[O-])o1 (stereo unspecified) 7.32% [at 75.8 µM]
CC1CC[C@@]2(C(=O)O)CC[C@]3(C)C(=CCC4[C@@]5(C)CCC(O)C(C)(C)C5CC[C@@]43C)C2C1C (stereo partly specified) 4.6%
CC(=O)NC(CC(=O)O)C(=O)O (stereo unspecified) 21.9%
C[C@@H](CN=[N+]=[N-])CN1CC[C@H](C(C)(C)C)CCC1=O -0.773%
CC1(C)OC2CC3C4CCC5=CC(=O)CCC5(C)C4(F)C(O)CC3(C)[C@]2(C(=O)CCl)O1 (stereo partly specified) 14.6%
OC[C@H]1O[C@@H](n2cnc3cncnc32)[C@H](O)[C@@H]1O
O=C1CCC[C@@H]2[C@H](Cc3ccccc3)[C@@H](O)C[C@@H]3CCN1[C@@H]32 -14.2%
O=S(=O)(c1ccccc1)N1CCC2(CC1)CN(Cc1ccccc1)C2 14.7%
CC(=O)C(C)=O -0.0011% [at 75.8 µM]
COc1ccc(Oc2ncc3nc(CCc4ccccc4)c(=O)n(CCC#N)c3n2)cc1 4.04%
Cn1cccc1C(=O)N1CCC2(CCCN(c3ccccn3)C2)CC1 5.39%
c1ccc2[nH]c(-c3cscn3)nc2c1
N#Cc1cccc(-c2nc(Nc3ccccc3)c3ccccc3n2)c1 26.3%
OC[C@@H](O)[C@@H](O[C@@H]1O[C@H](CO)[C@H](O)[C@H](O)[C@H]1O)[C@H](O)[C@@H](O)CO -5.02%
COc1ccc2[nH]cc(CCNc3ncnc4ccc(-c5ccc(C(=O)N(C)C)cc5)cc34)c2c1 22.1%
COc1ccc(-c2ccc(C(=O)N3CCc4c(cnc(C)c4CNS(=O)(=O)N(C)C)C3)o2)cc1 4.51%
O=C1CC2(CCCC2)CC(=O)N1CCNC[C@H]1COc2ccccc2O1 6.08%
O=C(NCC1Cc2cc(F)cc(-c3cnccn3)c2O1)c1cccc(Cl)c1 (stereo unspecified) -8.87%
CN1[C@@H](CC(=O)c2ccccc2)CCC[C@H]1C[C@H](O)c1ccccc1
COC(=O)N1CCC2(CCCN(c3ccncc3)C2)CC1 12.9%
CCCCCCCN(CC)CCCC(O)c1ccc(NS(C)(=O)=O)cc1 (stereo unspecified) -9.23%
CC1C(=O)CCC2[C@]1(C)CCC1[C@]2(C)CC[C@@]2(C)C3CC(C)(C)CC[C@]3(C)CC[C@@]12C (stereo partly specified) -4.36%
C=C1C[C@]23C[C@@]1(O)CC[C@H]2[C@@]12C=C[C@H](O)[C@@](C)(C(=O)O1)[C@H]2[C@@H]3C(=O)O -25.8% [at 75.8 µM]
CN1CCN(c2nc(-c3ccccc3C(F)(F)F)nc3ccccc23)CC1 9.92%
COc1ccccc1-c1nccc(NCc2ccccc2)n1 3.04%
Cc1occc1C(=O)Nc1cccc(-c2nc(CNC(=O)c3ccc4ccccc4n3)c(C)o2)c1 8.17%
C1=Cc2ccccc2/C1=C/c1ccc(/C=C2\C=Cc3ccccc32)cc1 11.9%
Cc1cc(C)n(Cc2cccc(C(=O)NCC3Cc4cccc(-c5ncccn5)c4O3)c2)n1 (stereo unspecified) -5.11%
Oc1cc(-c2nc3ccccc3s2)cc2c1OCCN(Cc1cccn1-c1nccs1)C2 8.28%
Nc1ncnc2c1ncn2[C@@H]1O[C@H](COP(=O)(O)OP(=O)(O)CP(=O)(O)O)[C@@H](O)[C@H]1O 11.6%
CC1(C)S[C@@H]2[C@H](NC(=O)[C@H](NC(=O)N3CCN(S(C)(=O)=O)C3=O)c3ccccc3)C(=O)N2[C@H]1C(=O)O 24.9%
CN(C(=O)CO)c1c(I)c(C(=O)NCC(O)CO)c(I)c(C(=O)NCC(O)CO)c1I (stereo unspecified) 19.1%
CN1CCN(c2ncnc3ccc(-c4ccc(C(=O)N(C)C)cc4)cc23)CC1 12%
CC(=O)N(Cc1ccc2c(c1)OCO2)Cc1cc2ccc(C)cc2nc1-c1cccc(C)c1 -19.1%
C[C@@H]1[C@H](c2ccccc2)OCCS(=O)(=O)N1Cc1ccc(Cl)cc1 -4.05%
N#CCCn1c(=O)c(-c2ccc(F)cc2)nc2cnc(Oc3cccc(Cl)c3)nc21 21.6%
O/N=C(/C[n+]1ccsc1)c1ccc(I)cc1 -9.22%
O=C(c1ccco1)N1CCC2(CCCN(c3ncccn3)C2)CC1 15.7%
Cc1cccc(CNc2ncncc2-c2ccc3c(c2)OCO3)c1 8.46%
CC(C)CCCC(C)CCCC(C)CCCCC(C)CCCC(C)CCCC(C)C (stereo unspecified) 5.23%
COC(=O)c1c(OC)cc2c(c1C)Oc1c(Cl)c(OC(C)=O)c(Cl)c(C)c1C(=O)O2 -9.85%
N#Cc1cc([N+](=O)[O-])c2sc(C(N)=O)[n+]([O-])c2c1 -0.687% [at 75.8 µM]
O=C(c1ccncc1)N1CCC2(CCN(Cc3cc(C(F)(F)F)cc(C(F)(F)F)c3)CC2)CC1 -8.49%
C[C@@H]1Oc2ccccc2C=C1/C=C/C(=O)O 11.3%
CC[N+](CC)(CC)CCOC(=O)C(C1CCCC1)C1CCCC1 38.6%
COCCn1c(=O)c(-c2cccc(F)c2)nc2cncnc21 -17.6%
CC[N+]1(CC(=O)c2ccc(I)cc2)CCCCC1 11.8%
CN1CCC(=O)N([C@H](CSc2ccccc2)Cc2ccccc2)CC1 15.6%
COc1ccccc1-c1cc2c(c(OC)c1)OCCN(CCC(C)c1ccc(C)o1)C2 (stereo unspecified) 11.5%
Cc1nc2ccc(C(=O)N3CCOc4ccc(CN5CCOCC5)cc4C3)cc2nc1C 8.02%
COCC(=O)Nc1cc(C(=O)N2CCN(C3CCCC3)C(=O)C2)c2c(c1)nc(-c1ccncc1)n2C 16.8%
CC(C)CC(NC(=O)CN)C(=O)NC(Cc1ccccc1)C(=O)O (stereo not drawn) (H-Gly-Leu-Phe-OH; configuration not given here) 11.1%
O=C(Oc1ccccc1)N1CCC[C@@]2(CCN(c3ccccc3)C2)C1 -5.74%
c1ccc(-c2cccc(N3CCCC4(CCNCC4)C3)c2)cc1 14.8%
S=C(S)O[C@@H]1C[C@@H]2C[C@H]1[C@@H]1CCC[C@H]21 -7.86%
COc1ccc(-c2cc(=O)c3c(O)cc(O[C@@H]4O[C@H](CO[C@@H]5O[C@@H](C)[C@H](O)[C@@H](O)[C@H]5O)[C@@H](O)[C@H](O)[C@H]4O)cc3o2)cc1O 11.4%
COc1ccc(/C=C2\NC(=O)[C@@H]3Cc4ccccc4CN3C2=O)cc1 12%
COCCn1c(=O)c(-c2ccc(OC)cc2)nc2cnc(OC)nc21 -0.0917%
OC(C[n+]1c(Cl)ccc2ccccc21)c1ccccc1 (stereo unspecified) 22.3%
N#Cc1ccccc1-c1ccc2ncnc(NCCN3CCOCC3)c2c1 11.4%
CNc1ccnc(-c2c(C)noc2C)n1 26.4%
Cc1cc(C(=O)NCC2CCC3(CCN(Cc4cccc(F)c4F)CC3)O2)n(C)n1 (stereo unspecified) 2.05%
COc1ccc(C2CC(=O)c3c(O)cc(O)cc3O2)cc1O (stereo unspecified) 3.42%
Cc1noc(C)c1-c1nccc(NCc2cccs2)n1 -5.04%
CCCCC/C=C\C\C=C/C=C/C=C/[C@@H](SC[C@H](NC(=O)CC[C@H](N)C(=O)O)C(=O)NCC(=O)O)[C@@H](O)CCCC(=O)O 9.01% [at 1.57 µM]
COc1ccc(C(=O)N2CCN(CC(=O)N3CCOCC3)CC2)cc1 5.09%
Cc1ccccc1CN1[C@@H](CC2CCCCC2)COCCS1(=O)=O -14.7%
COc1ccc(CN2[C@@H](CC(=O)O)c3ccc(/C=C/C(=O)O)cc3S2(=O)=O)cc1 17.5%
CC(=O)OCC(=O)[C@@]1(O)CC[C@H]2[C@@H]3C[C@H](C)C4=CC(=O)C=C[C@]4(C)[C@H]3[C@@H](O)C[C@@]21C 18.8%
